Assay results as given in PubChem BioAssay AID588591 (National Center for Advancing Translational Sciences (NCATS), 2011).
The whole screen tested about 390,000 compounds, of which about 4,700 (1.2%) were called active. The shares of active, inactive and inconclusive entries below differ from those in the screen. Calls follow the shape of the dose curve; as a rule, active = well fitted inhibition curve with a large enough effect; inconclusive = small, poorly fitted or top-dose-only effect, or another doubt; inactive = no such curve, though single readings can be large or run the other way. Potencies of inconclusive entries are doubtful fits and often do not repeat.

target: DNA polymerase eta (Homo sapiens) (UniProt Q9Y253); test: qHTS for Inhibitors of Polymerase Eta; conditions: recombinant Pol eta, fluorescent DNA replication assay; series mostly up to 114 µM
In short: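 Pol eta at 10 nM preincubated with compounds 15 min at room temperature; reaction started with fluorescent substrate (50 nM final) and read kinetically at 0 and 10 min.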
Potency is read from the fitted curve at half-maximal effect; tags tell the direction and shape of the fitted curve.

UniProt Q9Y253, sequence (Q9Y253 whole entry, looked up): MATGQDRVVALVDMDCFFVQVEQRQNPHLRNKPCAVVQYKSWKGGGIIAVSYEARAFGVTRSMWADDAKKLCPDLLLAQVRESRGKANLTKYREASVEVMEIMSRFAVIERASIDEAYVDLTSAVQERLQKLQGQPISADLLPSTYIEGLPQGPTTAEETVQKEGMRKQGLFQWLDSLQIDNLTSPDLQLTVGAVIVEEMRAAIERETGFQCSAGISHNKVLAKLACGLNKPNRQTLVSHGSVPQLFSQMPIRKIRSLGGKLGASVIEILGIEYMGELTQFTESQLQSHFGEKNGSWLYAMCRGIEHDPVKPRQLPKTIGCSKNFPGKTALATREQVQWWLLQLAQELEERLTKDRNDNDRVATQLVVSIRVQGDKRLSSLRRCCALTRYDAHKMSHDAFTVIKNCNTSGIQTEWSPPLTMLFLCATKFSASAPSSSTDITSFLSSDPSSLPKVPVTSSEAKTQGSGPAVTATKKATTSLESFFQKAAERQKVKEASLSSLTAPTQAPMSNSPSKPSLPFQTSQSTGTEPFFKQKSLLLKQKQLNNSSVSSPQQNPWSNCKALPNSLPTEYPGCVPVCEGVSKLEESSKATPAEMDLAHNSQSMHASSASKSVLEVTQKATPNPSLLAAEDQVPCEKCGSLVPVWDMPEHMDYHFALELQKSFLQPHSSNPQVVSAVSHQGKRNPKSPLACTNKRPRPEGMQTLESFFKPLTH

Row | SMILES | Potency
1 | CC(C)(C)c1ccc(C(=O)c2c[nH]c(C(=O)NCc3ccco3)c2)cc1 | inconclusive: 35.5 µM [inhibitor, partial curve, poor fit]
2 | COc1ccc(NS(=O)(=O)c2ccc(C(=O)N(C)Cc3ccc(C)o3)cc2)cc1 | inconclusive: 100 µM [inhibitor, single point]
3 | O=C(Nc1ccon1)c1ccc2c(c1)OCO2 | inactive
4 | Cc1ccc(N2C(=O)c3cccc4c(N)ccc(c34)C2=O)c2cccnc12 | inconclusive: 22.4 µM [inhibitor, full curve]
5 | COc1ccc(Nc2nn3c(=O)c4cc5c(cc4nc3s2)OCO5)c(OC)c1 | inconclusive: 56.2 µM [inhibitor, partial curve, poor fit]
6 | CC(C)CCN1C(=O)c2ccc(C(=O)Nc3ccc(Br)cc3C(=O)O)cc2C1=O | active: 31.6 µM
7 | Cc1cc(N2CCCC2)ccc1/C=N/n1cnnc1 | inconclusive: 89.1 µM [inhibitor, partial curve, poor fit]
8 | Cc1ccc2c(CC(=O)Nc3ccc(S(=O)(=O)N4CCCCC4)cc3)coc2c1C | inactive
9 | Cc1cccc(N2CCN(C(=O)Cn3c(-c4cccs4)cc4ccccc43)CC2)c1C | inactive
10 | CC(C)CCNC(=O)C1CCN(C(=O)c2cc3sccc3n2Cc2ccc(Cl)cc2)CC1 | inactive
11 | CCOC(=O)COc1ccc(Br)cc1/C=C/c1[nH]c(=O)[nH]c(=O)c1[N+](=O)[O-] | active: 44.7 µM
12 | Nc1ccc2nn(-c3cc([N+](=O)[O-])ccc3O)nc2c1 | active: 44.7 µM
13 | NC(=O)c1c(NC(=O)CSc2nc(N)cc(=O)[nH]2)sc2c1CCCC2 | inconclusive: 50.1 µM [inhibitor, partial curve, poor fit]
14 | COC(=O)C1=C(CSCc2ccco2)NC(=O)NC1c1cc(C)ccc1C (stereo unspecified) | inconclusive: 39.8 µM [inhibitor, single point]
15 | C/C(=N\NC(=O)c1ccc(N2CCCC2=O)cc1)c1ccccc1 | inactive
16 | CN1/C(=C/c2cccc[n+]2C)Sc2ccccc21 | inactive
17 | Cc1sc2ncnc(N3CCC(C(=O)N4CC(C)SC4=Nc4ccc(Cl)cc4)CC3)c2c1C (stereo unspecified) | inactive
18 | CCC(CC)C(=O)Nc1cccc(C(=O)NCc2ccco2)c1 | inconclusive: 89.1 µM [inhibitor, single point]
19 | CC1=NOC(=O)/C1=C/c1ccc(O)c(Br)c1 | inconclusive: 25.1 µM [inhibitor, partial curve, poor fit]
20 | CCCCCCCN(c1ccccc1)[C@@H]1C[C@H]2CCCC(=O)N3CC[C@@H](C1)[C@@H]23 | inconclusive: 22.4 µM [inhibitor, partial curve, poor fit]
21 | Cc1ccc(N2C(=O)C3C4C=CC(CC4)C3C2=O)cc1[N+](=O)[O-] (stereo unspecified) | inactive
22 | CCOc1ccc(NC(=S)N2CCN(CCN3C(=O)c4cccc5cccc(c45)C3=O)CC2)cc1 | inconclusive: 14.1 µM [inhibitor, full curve, poor fit]

Row | SMILES | Potency
23 | N#Cc1ccc(OCC(=O)Nc2cccc(S(=O)(=O)NC3=NCCCCC3)c2)cc1 | inconclusive: 12.6 µM [inhibitor, full curve, poor fit]
24 | Cc1ccc(NC(=O)NN2CCN(C)CC2)cc1C | inactive
25 | O=C(CCS(=O)(=O)c1ccccc1)N(CCCN1CCOCC1)c1nc2c(F)cccc2s1 | inactive
26 | O=C(Nc1nc2ccccc2s1)c1cc(-c2ccco2)nc2ccccc12 | inconclusive: 12.6 µM [inhibitor, partial curve, poor fit]
27 | COc1cc(N/C=C2\CC(=O)NC(C)=C2C#N)cc(OC)c1OC | inconclusive: 28.2 µM [inhibitor, partial curve]
28 | COc1ccccc1CNC(=O)c1sccc1C | inconclusive: 100 µM [inhibitor, partial curve, poor fit]
29 | Cc1cccc(C)c1NC(=O)CSc1nnc(-c2ccco2)c(-c2ccco2)n1 | active: 3.55 µM
30 | CCN(C(=O)C1CCN(S(=O)(=O)c2c(C)noc2/C=C/c2ccc(C)cc2)CC1)c1cccc(C)c1 | inactive
31 | COc1ccc(Cl)cc1NC(=O)c1cnc2sc(N3CCOCC3)nn2c1=O | inactive
32 | COc1cccc(NC(=O)c2nnn(Cc3ccc(Br)cc3F)c2N)c1 | inconclusive: 100 µM [inhibitor, partial curve, poor fit]
33 | CC(NCC(=O)Nc1ccccc1C(=O)NC1CC1)c1cccc(Cl)c1 (stereo unspecified) | inconclusive: 100 µM [inhibitor, partial curve, poor fit]
34 | CCOC(=O)c1ccc(NC(=O)CC(=O)Nc2ccc3nc4n(c(=O)c3c2)CCCCC4)cc1 | inactive
35 | CCOc1ccc(NC(=S)NC(=O)/C=C/c2ccco2)cc1 | inactive
36 | O=C(CCCN1C(=O)/C(=C\c2cccs2)SC1=S)Nc1cc([N+](=O)[O-])ccc1O | inconclusive: 35.5 µM [inhibitor, full curve]
37 | Cc1ccc2nc(-c3ccc(NC(=O)COc4ccc(Br)cc4Br)cc3)sc2c1 | inactive
38 | COC(=O)c1ccc(/C=C/C(=O)c2ccc(OC)c(OC)c2)cc1 | inconclusive: 25.1 µM [inhibitor, partial curve, poor fit]
39 | COc1ccc(C(=O)N(Cc2ccco2)Cc2ccc(C)o2)cc1 | inconclusive: 100 µM [inhibitor, partial curve, poor fit]
40 | C=CCC[C@@H](Cc1ccc(F)cc1)C(=O)OC[C@@H]1CCCN1C(=O)[C@@H](CC=C)CC(=O)N(CCO)Cc1ccccc1 | inconclusive: 79.4 µM [inhibitor, partial curve, poor fit]
41 | O=c1c2[nH]c3ccccc3c2nc2n1CCS2 | inconclusive: 89.1 µM [inhibitor, partial curve, poor fit]
42 | COc1ccccc1N1CCN(C/C(O)=C(\C#N)c2nc(-c3ccccc3)cs2)CC1 | inactive
43 | O=C(O)c1cnc(-c2ccccc2)nc1Sc1ccc(Cl)cc1Cl | inconclusive: 89.1 µM [inhibitor, single point]
44 | COc1ccc(Br)cc1CNC(=O)CN1C(=O)c2cccnc2Oc2ccc(C)cc21 | inconclusive: 79.4 µM [inhibitor, partial curve]

Row | SMILES | Potency
45 | O=C(Nc1nnc(Cc2c[nH]c3ccccc23)s1)c1ccc(Cl)cc1Cl | inconclusive: 8.91 µM [inhibitor, partial curve]
46 | CC(=O)OCC1=C(C(=O)O)N2C(=O)C(NC(=O)C(C)Cn3nc(C)c(Cl)c3C)C2SC1 (stereo unspecified) | active: 22.4 µM
47 | O=C(OCc1nc2ccsc2c(=O)[nH]1)c1ccc(Cl)s1 | inconclusive: 20 µM [inhibitor, single point]
48 | COc1ccc(CNC(=O)C(c2ccc(C)o2)N(Cc2cccs2)C(=O)Cc2cccs2)cc1 (stereo unspecified) | inconclusive: 22.4 µM [inhibitor, partial curve, poor fit]
49 | CCCCC1CCC(C(=O)N2CC(=O)Nc3ccc(F)cc3C2c2ccc(F)cc2)CC1 (stereo unspecified) | inconclusive: 44.7 µM [inhibitor, partial curve, poor fit]
50 | CCOC(=O)COn1c(=O)c(-c2ccco2)[n+]([O-])c2ccccc21 | inconclusive: 22.4 µM [inhibitor, single point]
51 | c1ccc2c(c1)Cn1nc(Cc3nc4c(s3)CCCC4)nc1-2 | inconclusive: 39.8 µM [inhibitor, single point]
52 | Cc1ccc(C(NC(=O)C2CCCCC2)c2c(O)ccc3ccccc23)cc1 (stereo unspecified) | inconclusive: 89.1 µM [inhibitor, partial curve, poor fit]
53 | COc1ccccc1C1NC(=O)NC(C)=C1C(=O)OC1CCC(C)CC1 (stereo unspecified) | inconclusive: 89.1 µM [inhibitor, partial curve, poor fit]
54 | COc1cccc(C(=O)NNc2c3ccccc3nc3ccccc23)c1 | inconclusive: 39.8 µM [inhibitor, partial curve, poor fit]
55 | C=CCNC(=O)c1ccc(-c2nc(-c3ccc(Cl)c(Cl)c3)cs2)cc1 | inconclusive: 17.8 µM [inhibitor, single point]
56 | C#CCn1cccc(C(=O)Nc2ccc(OC)cc2)c1=O | inconclusive: 39.8 µM [inhibitor, partial curve, poor fit]
57 | COCCn1c(C)cc(O)c(C(c2ccccc2)N2CCC(C)CC2)c1=O (stereo unspecified) | inactive
58 | O=C(NC1CCCCC1)C1CCCN1S(=O)(=O)c1ccc(Cl)cc1 (stereo unspecified) | inconclusive: 3.98 µM [inhibitor, full curve, poor fit]
59 | CC(=O)N1CCCc2cc(S(=O)(=O)N3CCC(C(=O)N(Cc4ccccc4)C(C)C)CC3)ccc21 | inconclusive: 89.1 µM [inhibitor, partial curve, poor fit]
60 | Cc1ccccc1OCC(=O)Nc1ccc(C(=O)Nc2ccccc2C(=O)O)cc1 | inconclusive: 89.1 µM [inhibitor, single point]
61 | O=C(NCc1ccc(F)cc1)c1ccc[nH]1 | inactive
62 | Cc1cc([N+](=O)[O-])cc2c1NC(=O)C2(O)N1CCOCC1 (stereo unspecified) | inconclusive: 89.1 µM [inhibitor, partial curve]
63 | O=C(COc1ccc(/C=C\[N+](=O)[O-])cc1)N1CCOCC1 | active: 31.6 µM
64 | CCOC(=O)C1=C(O)/C(=C/c2ccc(OCC(=O)O)c(OCC)c2)SC1=Nc1ccc(C)cc1 | inconclusive: 79.4 µM [inhibitor, partial curve]
65 | COc1cccc(=O)c2c(C)n(C)c(C)c12 | inconclusive: 20 µM [inhibitor, partial curve, poor fit]
66 | CCOc1cc(CNS(=O)(=O)c2ccc3c(c2)CC(=O)N3C)cc(OCC)c1OCC | inconclusive: 100 µM [inhibitor, single point]
